# In the supplement of paper PMC3334620:
# Over roughly 33,000 sequences, “E-score (-0.5 to 0.5)” has its median near -0.053; the highest 2% begin near 0.37. Some of the results follow.
# Target: Hap1 (UniProt P0CE41)
# Experiment: PBM E-score (8-mer binding enrichment) (E-score (-0.5 to 0.5)); higher = stronger / more preferred TF binding; most listed sequences are background and not binding sites
# Conditions: protein concentration: 200 nM; construct: GST-DNA-binding domain
# Method in brief: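 Bound GST-tagged yeast transcription factors, applied at about 100-200 nM to double-stranded universal all-10-mer Agilent arrays, were detected with fluorescent anti-GST. Scans were normalised with masliner. A modified Wilcoxon-Mann-Whitney statistic, the E-score, was assigned to each ungapped eight-base word pooled with its reverse complement by the Universal PBM Analysis Suite.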
# Chain of UniProt P0CE41 (P0CE41 whole entry): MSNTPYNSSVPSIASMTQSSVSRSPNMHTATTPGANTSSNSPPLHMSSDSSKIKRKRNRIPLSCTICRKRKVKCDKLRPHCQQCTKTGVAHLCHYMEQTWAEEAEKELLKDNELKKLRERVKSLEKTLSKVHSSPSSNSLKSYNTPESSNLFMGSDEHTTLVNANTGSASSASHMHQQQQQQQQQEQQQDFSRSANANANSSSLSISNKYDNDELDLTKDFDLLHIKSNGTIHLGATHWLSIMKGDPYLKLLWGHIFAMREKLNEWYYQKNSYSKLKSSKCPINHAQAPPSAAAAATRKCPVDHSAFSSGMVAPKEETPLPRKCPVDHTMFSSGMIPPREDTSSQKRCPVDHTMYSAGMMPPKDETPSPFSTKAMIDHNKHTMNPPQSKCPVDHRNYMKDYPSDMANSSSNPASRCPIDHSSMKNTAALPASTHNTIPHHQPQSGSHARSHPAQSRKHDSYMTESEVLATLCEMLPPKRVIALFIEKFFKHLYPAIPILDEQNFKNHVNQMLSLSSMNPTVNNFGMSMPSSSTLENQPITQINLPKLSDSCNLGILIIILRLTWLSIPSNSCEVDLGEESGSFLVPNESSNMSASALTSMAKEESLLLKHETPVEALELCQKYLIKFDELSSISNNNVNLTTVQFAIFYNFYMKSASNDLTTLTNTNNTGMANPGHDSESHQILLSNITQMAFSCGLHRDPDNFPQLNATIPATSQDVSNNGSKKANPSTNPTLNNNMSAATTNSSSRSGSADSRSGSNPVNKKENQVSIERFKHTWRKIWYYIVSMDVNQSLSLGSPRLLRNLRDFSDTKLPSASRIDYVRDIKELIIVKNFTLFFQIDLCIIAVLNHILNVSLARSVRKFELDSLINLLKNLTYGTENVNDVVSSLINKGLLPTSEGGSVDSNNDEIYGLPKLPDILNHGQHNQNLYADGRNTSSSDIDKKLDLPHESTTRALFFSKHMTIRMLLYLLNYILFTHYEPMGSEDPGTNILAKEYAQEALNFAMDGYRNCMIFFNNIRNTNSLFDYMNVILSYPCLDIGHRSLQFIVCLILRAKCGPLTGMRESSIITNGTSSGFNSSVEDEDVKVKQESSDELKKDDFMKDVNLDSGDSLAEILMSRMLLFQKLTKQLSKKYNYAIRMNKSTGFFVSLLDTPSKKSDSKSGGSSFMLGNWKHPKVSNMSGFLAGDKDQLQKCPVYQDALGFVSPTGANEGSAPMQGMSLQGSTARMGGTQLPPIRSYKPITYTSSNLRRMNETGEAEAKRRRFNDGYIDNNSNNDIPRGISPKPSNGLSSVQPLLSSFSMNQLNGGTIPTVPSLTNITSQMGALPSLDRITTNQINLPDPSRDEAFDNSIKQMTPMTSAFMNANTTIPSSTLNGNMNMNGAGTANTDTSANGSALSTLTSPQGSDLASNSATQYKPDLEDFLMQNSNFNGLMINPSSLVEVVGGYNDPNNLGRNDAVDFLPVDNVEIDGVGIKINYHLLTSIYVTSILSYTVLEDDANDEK
row,Sequence,PBM E-score
1,ACCAACAG,-0.0664
2,ACCCCGCC,0.198
3,CCCGCCCA,0.00805
4,AGCTGGTC,-0.231
5,AACCTATA,0.00602
6,CGTCTAAG,-0.102
7,ACTGTCCA,-0.173
8,CCAAGACG,-0.22
9,CTTGTCGA,-0.39
10,AGCCTAAG,-0.271
11,TATCGATA,0.0165
12,ACCTGGAT,-0.166
13,GGAGTAGA,0.03
14,ACGCGTAT,0.0832
15,GTTGTCTA,-0.1
16,ATCGACAG,-0.066
17,CACACAGA,-0.227
18,CCCACGTC,-0.0511
19,GACAAAGC,0.123
20,AATGAGGG,-0.196
21,CTTGCACA,-0.136
22,CGCGGCAG,0.1
23,ACTGTTTC,-0.00592
24,AGCCCGAC,0.127
25,ACCTATCT,-0.179

row,Sequence,PBM E-score
1,GACCCCTA,-0.276
2,GATCGAGC,0.127
3,CAGTTCCG,0.248
4,AAATTTGG,-0.205
5,ATGAGTCC,0.0718
6,ATAAGCGC,0.0156
7,AGAGCCAT,-0.15
8,GCCAGTCC,0.112
9,CTGCACTC,-0.0272
10,AGACCCCG,0.272
11,AGACAAAC,-0.0936
12,CGTCGAAC,-0.209
13,CTAGTGGC,-0.169
14,AATAGGCC,-0.0456
15,AACAGGTA,-0.0945
16,ACATGCAG,-0.165
17,CTACCGAG,0.139
18,CTTTAATA,-0.0221
19,CCTCGACC,-0.177
20,CTCAGCGA,-0.00422
21,CCGGATGA,0.356
22,AAGCGTGA,-0.1
23,AGCAAGCC,-0.0878
24,CAAACGAA,-0.26
25,ATGAGGTC,-0.159

row,Sequence,PBM E-score
1,AGTGGTCA,-0.0959
2,CCACCCGG,0.254
3,AACAAACT,-0.148
4,ACTCAAAG,-0.154
5,CCCAGTCA,-0.241
6,CCGGATCC,0.328
7,CAGCGGTC,0.0849
8,ACTTCCGG,0.382
9,AAGGGAGC,-0.167
10,ACCTGAAA,-0.165
11,AAGCATGT,-0.0879
12,GATAAAGC,0.151
13,GTAGTCGA,-0.148
14,AGTACATG,-0.108
15,ACCTGACA,-0.0727
16,GGGTGTAC,0.15
17,ATTACTGG,-0.259
18,ACTATGTG,-0.0936
19,GCACCTTA,-0.02
20,CAGGATTC,-0.0563
21,AGCGCAGG,0.00092
22,CGGCCACG,0.0529
23,CGATCACG,0.122
24,CGCGAAGC,0.15
25,ACAGTCTC,-0.197

row,Sequence,PBM E-score
1,CGGACTAC,0.332
2,CAGCAGGC,-0.0374
3,ACTTAGAG,-0.367
4,ATCCTACC,-0.0802
5,CTCGCAGA,-0.226
6,AGCCGGTG,0.326
7,AGGTGATC,-0.151
8,GAGGGTAC,-0.123
9,ACGTCCAT,-0.149
10,ACTAATGA,-0.0636
11,GGAATTGA,0.263
12,TCCGCTCA,0.0724
13,ATTGAAAC,-0.0236
14,ACGTATTA,0.162
15,GGGTTACA,0.0182
16,CACTCGTA,-0.124
17,CCTACGTA,-0.223
18,CTGGATCA,-0.161
19,AAATGGCG,0.00353
20,CGAATTCA,0.144
21,TAGAACTA,-0.157
22,CGGCAATA,0.408
23,AGCCAGGC,-0.141
24,ATCGGTTG,0.231
25,ATGAGGCG,0.0542

row,Sequence,PBM E-score
1,ACGATAGT,-0.242
2,CTGGGGGC,-0.219
3,TGATCACA,-0.16
4,AGCAATGA,-0.0478
5,GGAGTTCA,0.0968
6,AGCAACGG,0.2
7,CTCGACAG,-0.23
8,AAGGAGCA,-0.168
9,CACAATCC,0.00608
10,ATTTTTAG,-0.075
11,ACTCACGA,-0.217
12,CTGGTGTC,-0.132
13,TCGTCGCA,-0.0994
14,GAGCTGCC,0.173
15,CGGAAAGA,0.305
16,CCAAACTA,-0.134
17,AACGAACT,-0.157
18,GACACTGC,-0.153
19,CCATAACC,-0.0952
20,CCGTCTGC,0.0393
21,AAATGTCG,0.0311
22,AGCCAAAT,0.114
23,TATTACAA,-0.0901
24,ACAACGAG,-0.13
25,ATGCGGTA,0.173

row,Sequence,PBM E-score
1,AATCTCAT,-0.118
2,CAGTCACA,-0.418
3,CTAGGGGA,-0.162
4,ACACCAAA,-0.176
5,GCTGGAAC,-0.0644
6,GCACGTGC,0.0623
7,CGGATTCC,0.356
8,AGGTAACC,-0.0072
9,CAGAGGTC,0.00205
10,CTGATTCC,-0.0536
11,GAGGGCGA,0.0665
12,AAGCACGA,-0.141
13,CACGCCAC,-0.209
14,CGTCACGC,-0.0646
15,AAAACAAA,0.043
16,AATAGTTG,-0.0245
17,GCATTTAC,0.0528
18,CCCGATCC,0.31
19,AGTTGCCC,0.00608
20,AGCCCACC,0.0883
21,GGGAAAAA,0.0878
22,ACATTGAT,-0.0542
23,CGAGGAGA,-0.00186
24,ACAGCGCG,0.0018
25,ATCTGTGC,-0.14

row,Sequence,PBM E-score
1,AAGGCAAG,-0.183
2,AGGAAGTC,-0.292
3,AAGTCAGT,-0.0893
4,CGCGCCTC,0.114
5,AGTAATGA,-0.0848
6,GCCCGACC,0.186
7,AGTAGATA,-0.0313
8,CTAGGGTA,-0.221
9,ACCTCGAC,-0.183
10,GTTCCAAA,-0.109
11,AATCGGTG,0.128
12,AATAGCAG,-0.0813
13,AGGACACC,-0.00126
14,ATTCTATC,-0.0566
15,GATCATGC,-0.0933
16,AATAAACA,0.0458
17,AGGTGGGA,-0.0974
18,GGCATATA,0.0598
19,ACCGCTGA,0.0609
20,CCAAACGC,-0.107
21,TGGGTAAA,-0.136
22,AATGGGAG,-0.101
23,CGGCGACA,0.23
24,ACGTTGTG,-0.142
25,GAGAAATC,0.0472

row,Sequence,PBM E-score
1,ACGTCTCC,-0.0704
2,GACTCCGA,0.301
3,GCCGACAA,0.278
4,ATCTTTGA,-0.0915
5,CTTCAGCA,-0.327
6,GTCTTGAA,-0.175
7,AAGACTAG,-0.353
8,AAGCCCGT,0.232
9,TAAAAACA,-0.165
10,GCACAGCC,0.0918
11,ACCCGATG,0.3
12,CGGAACCG,0.295
13,CCTTCCCC,0.108
14,CGTAACCA,-0.19
15,ACACCAGA,-0.0818
16,AAACGTTA,-0.0942
17,CCAAGGGC,-0.212
18,CACGAGAG,-0.128
19,AATGGGAT,-0.019
20,GACCTGAA,0.0636
21,TCAGCTAA,-0.21
22,CTAATCTC,-0.00409
23,CGCATGTC,-0.0848
24,GATACATA,0.059
25,AAAGTGGG,0.0026

row,Sequence,PBM E-score
1,AATTATAT,0.0596
2,AGAACAAA,-0.00064
3,CGCGCGAG,0.169
4,CAGCTAGC,-0.145
5,TTTAGAAA,0.0499
6,CGATCTCC,0.216
7,CGGTTTAC,0.105
8,AGTCCTGA,-0.273
9,GCTCTATA,-0.0872
10,AATGGACT,-0.163
11,CTGACTGA,-0.221
12,ATGATGGG,-0.116
13,AGTGCCGG,0.362
14,AACCGTGT,-0.0449
15,ACGAGACG,-0.13
16,AAACCCAT,0.14
17,GTTTGCCA,-0.165
18,CACTAAGC,-0.178
19,AGCTTGAT,-0.287
20,ATAGCAAG,-0.13
21,GCGTCAAC,0.0164
22,GTTAGTCA,-0.0615
23,CACGCAAG,-0.195
24,ACTGCACC,0.0352
25,CGGGGACA,0.275

row,Sequence,PBM E-score
1,TAGTCAAA,-0.259
2,CATTGAGC,-0.144
3,CGATCTTA,0.0333
4,ACGGTCCT,-0.021
5,CGAAGAGC,0.149
6,TTACGGAA,0.317
7,CTTAAGAC,0.14
8,CCGCGTAA,0.229
9,ATGCGCTA,-0.0961
10,CTGAGGCA,-0.236
11,AACGATAT,-0.0547
12,CGATGCGC,0.13
13,CGTAAAAG,0.0842
14,CAACTCAA,-0.184
15,AAAATCCG,0.437
16,ATACTATA,-0.177
17,AAAATCGA,-0.107
18,GCGTCTGA,-0.223
19,AAATCGAG,-0.0227
20,ACCAGGGG,-0.191
21,ACTAATAC,0.219
22,CCATGTAC,-0.102
23,CGGCCTTC,0.301
24,GGTTTGTA,-0.0977
25,CGCTGCAC,-0.0193

row,Sequence,PBM E-score
1,GCCGTAAC,0.229
2,CTGTTAAA,-0.146
3,AGACCCTA,-0.17
4,CAAGCCAC,-0.21
5,AAGTCTTC,-0.209
6,AAATACGC,0.179
7,ATTCAGCG,0.012
8,AAATCCGC,0.387
9,CGGCACAA,0.145
10,AGATGTTC,-0.135
11,ACAATTCG,0.0487
12,GACCCACA,-0.122
13,ATACGAAA,0.0671
14,CCGCCCGA,0.37
15,TCACCACA,-0.168
16,ATTACAAA,-0.115
17,CAGGTATC,0.0262
18,AACAATAC,-0.134
19,CATTTTTC,0.0562
20,TGGAACAA,-0.211
21,CTTCGCAC,-0.129
22,AGTTACGG,0.0958
23,AATGCGCA,0.067
24,GTCTCATA,-0.073
25,GTGCGTAA,-0.0602

row,Sequence,PBM E-score
1,ACAAGAGC,-0.109
2,CAGACAGC,-0.11
3,ATGTATTG,-0.0708
4,AATTCCTG,-0.0671
5,CAGCGGTA,-0.00677
6,CATAGAAG,-0.0619
7,TCCCTCCA,-0.206
8,ACGCCGCA,0.18
9,AGCCTAGA,-0.296
10,AATTGACA,0.0446
11,CGTAGGGC,-0.163
12,GAAATGGC,0.0049
13,AAAAGCGC,0.134
14,CAGTTACC,0.109
15,GATAAATC,0.216
16,ACGGGACT,0.119
17,AACTAACC,0.122
18,ATTGTCAA,-0.133
19,ACCTAAGT,0.00803
20,CGAGAGCC,0.0315
21,TCGAATCA,-0.201
22,ACGGCACC,-0.129
23,GCCCACAA,-0.182
24,ACTCCTTA,-0.13
25,CATTCCTA,-0.226

row,Sequence,PBM E-score
1,AAGTATAA,0.132
2,AGCTCGAA,0.154
3,TCGAGGCA,-0.323
4,CAATGGCG,0.165
5,GTGCCGCA,-0.0182
6,TCATTCCA,-0.0281
7,CAGCCGGA,0.33
8,AATACTGC,-0.0242
9,AAACTACC,-0.0252
10,ATTAATTA,-0.241
11,AGGAGTGA,-0.255
12,ACGTGGCC,-0.352
13,CGTTTCGA,-0.266
14,CAACCCGA,0.199
15,ACATGGCA,-0.218
16,ACATTGTG,-0.268
17,ACGCGAAG,0.0657
18,AAACACGG,0.0865
19,AGAGGGGG,-0.205
20,GACTCCCC,-0.00194
21,GCGGCGTA,0.18
22,AACCCCAC,-0.0339
23,CAAGCACG,-0.0706
24,AACCCCAT,0.134
25,ACCGTCAT,-0.0249

row,Sequence,PBM E-score
1,ACCACTAG,-0.231
2,CCTCGACG,-0.11
3,CGGCCCAG,0.269
4,CGCTAGCG,0.0545
5,CAGGGGTA,-0.29
6,AACCTTGT,-0.302
7,TCTTCCCA,-0.168
8,AAGATGCT,-0.0629
9,GCGACAGC,0.0479
10,AAGAATGA,-0.104
11,CCCGTCCG,0.314
12,CCAATCCA,-0.0616
13,ACTCCAGC,-0.126
14,AATTGTCT,-0.0911
15,TACCGATA,0.378
16,AGGGTTGG,-0.124
17,CAATTTTA,-0.116
18,AACCCAGC,-0.192
19,GCCTATAA,-0.109
